# Out of some 310,000 compounds screened, about 2,200 (0.71%) showed an effect of 50% or more. The effect is printed as a negative number. The list shows a part of the results.
# Target: human ether-à-go-go-related gene (hERG) potassium channel (human, UniProt Q12809)
# Experiment: primary screen, population patch clamp on CHO cells stably expressing hERG
# Sequence of human ether-à-go-go-related gene (hERG) potassium channel (Q12809 whole entry, looked up): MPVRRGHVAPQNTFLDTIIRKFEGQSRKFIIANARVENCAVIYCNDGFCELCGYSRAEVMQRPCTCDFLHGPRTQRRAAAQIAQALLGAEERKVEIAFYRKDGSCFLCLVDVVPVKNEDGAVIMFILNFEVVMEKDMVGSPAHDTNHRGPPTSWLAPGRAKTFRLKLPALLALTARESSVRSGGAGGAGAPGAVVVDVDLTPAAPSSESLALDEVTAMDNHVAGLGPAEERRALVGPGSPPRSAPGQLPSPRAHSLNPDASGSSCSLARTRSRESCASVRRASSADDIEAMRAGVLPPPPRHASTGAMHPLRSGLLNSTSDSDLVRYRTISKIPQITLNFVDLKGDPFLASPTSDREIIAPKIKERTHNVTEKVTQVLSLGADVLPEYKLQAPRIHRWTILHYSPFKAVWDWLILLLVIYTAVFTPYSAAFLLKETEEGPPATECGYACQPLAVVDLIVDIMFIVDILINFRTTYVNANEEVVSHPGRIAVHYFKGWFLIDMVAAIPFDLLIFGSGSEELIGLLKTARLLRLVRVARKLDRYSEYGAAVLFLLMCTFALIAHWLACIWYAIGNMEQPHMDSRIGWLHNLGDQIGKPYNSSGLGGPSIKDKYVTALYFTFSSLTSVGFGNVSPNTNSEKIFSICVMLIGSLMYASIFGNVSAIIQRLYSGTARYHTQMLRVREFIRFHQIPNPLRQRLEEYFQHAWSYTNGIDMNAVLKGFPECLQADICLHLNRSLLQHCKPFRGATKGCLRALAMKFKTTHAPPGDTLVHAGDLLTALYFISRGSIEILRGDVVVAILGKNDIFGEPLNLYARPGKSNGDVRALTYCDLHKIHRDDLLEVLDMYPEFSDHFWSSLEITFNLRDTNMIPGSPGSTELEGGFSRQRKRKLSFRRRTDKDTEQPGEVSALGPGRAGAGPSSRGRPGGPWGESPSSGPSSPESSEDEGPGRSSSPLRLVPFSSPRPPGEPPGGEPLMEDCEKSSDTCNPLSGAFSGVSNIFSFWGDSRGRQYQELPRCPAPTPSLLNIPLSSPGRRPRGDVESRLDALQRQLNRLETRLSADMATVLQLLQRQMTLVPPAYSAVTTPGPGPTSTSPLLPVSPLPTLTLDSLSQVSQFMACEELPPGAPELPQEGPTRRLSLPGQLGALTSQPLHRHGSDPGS
row,Compound,"hERG current change (%, negative = inhibition) at 1uM [%]"
1,Cc1sc2ncnc(N3CCC(C(=O)NCC(=O)Nc4ccc(F)c(F)c4)CC3)c2c1C,-32.5
2,COc1ccc(/C=C2\SC(=O)N(CC(=O)N(C)C3CCS(=O)(=O)C3)C2=O)cc1 (stereo not drawn),11
3,O=[n+]1c2c(n([O-])c3ccccc31)CCC2,5.78
4,Cc1ccc(Cl)cc1NC(=S)N/N=C/c1cccc2ccccc12,0.535
5,O=C(CCCSc1nc2ccccc2[nH]1)NCc1ccccc1,-2.35
6,CCn1c(SCC(=O)c2cc(C)ccc2C)nc2cc(S(=O)(=O)N3CCOCC3)ccc21,5.92
7,COC(=O)/C=C1\C(=O)N(c2nc3ccccc3s2)C(=S)N1c1ccc(F)cc1,15
8,COc1cccc(-n2c(Cc3cc(=O)[nH]c(=O)[nH]3)nnc2SCc2cccc(C(F)(F)F)c2)c1,12.4
9,Cn1nc(C(=O)NCCN2CCOCC2)c2ccccc2c1=O,15.8
10,COc1ccc(C(=O)Nc2ccccc2C(=O)NC(C)C)cc1OC,1.11
11,CN1CCN(C/C(=C2/N=C(c3ccccc3)OC2=O)N(C)C)CC1,-16.9
12,COc1ccc(C(=O)NC2CCN(S(=O)(=O)c3ccc(C)cc3)CC2)cc1,13.3
13,CCCCC(=O)Nc1ccc(NC(=S)NC(=O)c2cccs2)cc1OC,6.75
14,NNC(=O)c1cc(-c2ccccc2)sc1N,4.23
15,Oc1[nH]c(=S)sc1/C=C1\C(c2ccccc2)=Nc2ccccc21,25.4
16,Cc1c(C)c2c(C)[nH]nc2oc1=O,11.4
17,CC(NC(=O)/C(C#N)=C/c1ccc(C(=O)O)cc1)c1ccccc1 (stereo not drawn),2.43
18,COC(=O)C1=C(c2ccc(-c3ccccc3)c(F)c2)C[C@@H]2CC[C@H]1N2C(=O)NCC1CC1,17.9
19,Cc1[nH][nH]c(=O)c1N=Nc1ccccc1C#N,10.7
20,CN(CC(=O)Nc1ccc(C#N)cc1)Cc1ccc(Cl)cc1,-41.4
21,CC(NC(=O)CCSCCC(=O)NC(C)c1ccccc1)c1ccccc1 (stereo not drawn),5.46
22,O=C(O)c1ccccc1C(=O)NNC(=O)C(c1ccccc1)c1ccccc1,9.92
23,O=C(CNC(=O)c1ccc(N2C(=O)c3ccccc3C2=O)cc1)OCC(=O)c1ccc(Cl)cc1,-0.099

row,Compound,"hERG current change (%, negative = inhibition) at 1uM [%]"
1,COc1ccccc1NC(=S)N1CCN(c2ccccn2)CC1,15.5
2,CCN1C(C#N)=C(C#N)N=C(C)CC1(C)C,-1.54
3,O=C1C=CC(=O)C(C2=C3C(=O)N(CCc4ccccc4)CC(=O)N3CCC2)=C1,8.14
4,C=CCOc1ccc(/C=C/C(=O)OCC(=O)NCc2cccs2)cc1,13.4
5,Cc1ccc(C(=O)NC2CCN(CC(=O)Nc3cccc([N+](=O)[O-])c3)CC2)cc1,-39.5
6,Cc1ccc(NS(=O)(=O)c2cccc(C(=O)NCC(c3ccco3)N3CCCCC3)c2)cc1 (stereo not drawn),1.94
7,O=C(Nc1ccccc1)c1nc[nH]c1C(=O)N1CCN(c2ccccc2)CC1,9.77
8,CCn1c(SCC(=O)c2ccccc2)nnc1-c1cccnc1,-4.55
9,Cc1ccc(-c2noc(C3CCCN(C(=O)c4cccc(F)c4)C3)n2)cc1 (stereo not drawn),12.6
10,COC(=O)c1ccccc1CSc1nsc(/C=C/N(C)C)c1C#N,14.6
11,CC(=O)c1cccc(S(=O)(=O)N2CCC(C(=O)O)(c3ccccc3)CC2)c1,11.2
12,O=C(c1ccco1)N1CCN(C(=S)Nc2ccc(Br)cc2Cl)CC1,-3.58
13,CCCOc1ccc(-c2nnn(CC(=O)c3c[nH]c4ccccc34)n2)cc1,10.8
14,COc1ccc(C)cc1NC(=O)C1CCCN1C(=O)OCc1ccccc1 (stereo not drawn),3.53
15,COc1cccc(/C=C2\SC(=N)N(c3ccc(F)cc3)C2=O)c1,8.04
16,CCOc1ccccc1NC(=O)Cn1cnc2c(cnn2-c2ccc(C)c(C)c2)c1=O,6.42
17,CSc1cc(C)n(-c2ccc(Cl)cc2)c(=S)c1C(C)=O,-20.9
18,CC(=O)c1ccc(OCc2cc(C(=O)NC(C)CCn3cccn3)no2)cc1 (stereo not drawn),3.44
19,CCCc1nnc(NC(=O)c2ccc([N+](=O)[O-])cc2)s1,16.9
20,CCc1ccc(S(=O)(=O)NC(=S)NC2CCCCC2)cc1,11
21,CC1(C)CC(=O)C=C(NC2CC(C)(C)NC(C)(C)C2)C1,14.7
22,CCOc1ccc(-c2nn[nH]n2)cc1,-6

# Reference: article PMC4336329 (PLoS ONE, 2015)
